Data taken from paper PMC5892938.
This is one part of the list. At the low end of the ranking, values are background and their order means little.

target: GST-SBP-SLBP (stem-loop binding protein) (UniProt Q14493); assay: targeted RNA Bind-n-Seq; conditions: RBNS binding buffer: 25 mM Tris pH 7.5, 150 mM KCl, 3 mM MgCl2, 0.1% Tween, 0.5 mg/mL BSA, 1 mM DTT; 27 nM protein, 750 pM RNA pool; temperature not stated; high values mean tight binding;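 note: DESeq read counts versus GST-SBP nonspecific binding control pulldown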

Sequence | binding signal (log2 fold change)
GGUCACGUCUCAAUCAACUCUAUUUCCAGGGAAACCCCUGGCAAUUUCAACAGCUCGCAGUCAAG | -0.13
GGUCACGUCUCAAUCAACUCUCUAGAGGGGGGGAAAACCCCUUUGCCCUCACCGUCAACAGCUCGCAGUCAAG | 0.0176
GGUCACGUCUCAAUCAACUCCCUAGAGGGGGGGAAAACCCCUUUGCCCUCAAUCUCAACAGCUCGCAGUCAAG | -0.439
GGUCACGUCUCAAUCAACUCUAUUCCCAGGGAAACCCCUGGCAUUUUCAACAGCUCGCAGUCAAG | 0.0207
GGUCACGUCUCAAUCAACUCAUUUCCAGGAGUUUGCUCCUGCAUUUUCAACAGCUCGCAGUCAAG | -0.059
GGUCACGUCUCAAUCAACUCAACUUCAGGAGUUUGCUCCUGUUAUCUCAACAGCUCGCAGUCAAG | -0.0442
GGUCACGUCUCAAUCAACUCUUCUUCAGGAGUUUUCUCCUGCAUAUUCAACAGCUCGCAGUCAAG | 0.0186
GGUCACGUCUCAAUCAACUCAGUCCCCAGGGAAAGCCCUGGCAUAUUCAACAGCUCGCAGUCAAG | 0.34
GGUCACGUCUCAAUCAACUCCACAGAGGGGGGGAAAACCCCUUUACCCUCCAAAUCAACAGCUCGCAGUCAAG | -0.114
GGUCACGUCUCAAUCAACUCACUAGAGGGGGGGAAAACCCCUUUACCCUCCAUAUCAACAGCUCGCAGUCAAG | -0.247
GGUCACGUCUCAAUCAACUCUUCCGAGGGGGGGAAAACCCCUUUACCCUCUUUUUCAACAGCUCGCAGUCAAG | 0.253
GGUCACGUCUCAAUCAACUCUUCCCCCAGGGAAACCCCUGGCAUAUUCAACAGCUCGCAGUCAAG | -0.0573
GGUCACGUCUCAAUCAACUCAUUCUCCAGGGAAAACCCUGGUAUUCUCAACAGCUCGCAGUCAAG | 0.159
GGUCACGUCUCAAUCAACUCAUUCUCAGGAGUUUCCUCCUGCAAAUUCAACAGCUCGCAGUCAAG | 0.00261
GGUCACGUCUCAAUCAACUCUUUCCCCAGGGAAAGCCCUGGCAAAUUCAACAGCUCGCAGUCAAG | 0.17
GGUCACGUCUCAAUCAACUCAAUCCCAGGAGUUUCCUCCUGUAAUGUCAACAGCUCGCAGUCAAG | 0.0804
GGUCACGUCUCAAUCAACUCUACUCCCAGGGAAAUCCCUGGCAAAUUCAACAGCUCGCAGUCAAG | 0.0336
GGUCACGUCUCAAUCAACUCUUUCGAGGGGGGGAAAACCCCUUUGCCCUCAACAUCAACAGCUCGCAGUCAAG | -0.45

Sequence | binding signal (log2 fold change)
GGUCACGUCUCAAUCAACUCUCUAGAGGGGGGGAAAACCCCUUUACCCUCAUCGUCAACAGCUCGCAGUCAAG | -0.454
GGUCACGUCUCAAUCAACUCAAUUCCAGGAGUUUCCUCCUGUAUUUUCAACAGCUCGCAGUCAAG | 0.0487
GGUCACGUCUCAAUCAACUCAGUCCCCAGGGAAAACCCUGGCUUAUUCAACAGCUCGCAGUCAAG | 0.209
GGUCACGUCUCAAUCAACUCUCUAGAGGGGGGGAAAACCCCUUUACCCUCCACAUCAACAGCUCGCAGUCAAG | -0.175
GGUCACGUCUCAAUCAACUCUUUCGAGGGGGGGAAAACCCCUUUACCCUCAUCCUCAACAGCUCGCAGUCAAG | 0.00394
GGUCACGUCUCAAUCAACUCCUUCGAGGGGGGGAAAACCCCUUUACCCUCCACAUCAACAGCUCGCAGUCAAG | 0.203
GGUCACGUCUCAAUCAACUCAUUCCCCAGGGAAACCCCUGGCAAUCUCAACAGCUCGCAGUCAAG | -0.0169
GGUCACGUCUCAAUCAACUCUUUCGAGGGGGGGAAAACCCCUUUACCCUCACCAUCAACAGCUCGCAGUCAAG | 0.0225
GGUCACGUCUCAAUCAACUCAAUCUCAGGAGUUUUCUCCUGUUUAUUCAACAGCUCGCAGUCAAG | 0.267
GGUCACGUCUCAAUCAACUCAACUCCAGGAGUUUUCUCCUGUAAAUUCAACAGCUCGCAGUCAAG | -0.0406
GGUCACGUCUCAAUCAACUCUAUAGAGGGGGGGAAAACCCCUUUGCCCUCCACUUCAACAGCUCGCAGUCAAG | 0.0428
GGUCACGUCUCAAUCAACUCAUUUUCCAGGGAAAUCCCUGGCAGUCUCAACAGCUCGCAGUCAAG | -0.143
GGUCACGUCUCAAUCAACUCUAUCCCCAGGGAAAACCCUGGCUUAUUCAACAGCUCGCAGUCAAG | 0.154
GGUCACGUCUCAAUCAACUCUUCGUCCAGGGAAAUCCCUGGCAUUUUCAACAGCUCGCAGUCAAG | -0.292
GGUCACGUCUCAAUCAACUCAUUUCCCAGGGAAAGCCCUGGUAUACUCAACAGCUCGCAGUCAAG | -0.182
GGUCACGUCUCAAUCAACUCUACUCCCAGGGAAAACCCUGGCUUUCUCAACAGCUCGCAGUCAAG | -0.249
GGUCACGUCUCAAUCAACUCUACAGAGGGGGGGAAAACCCCUUUACCCUCAAUAUCAACAGCUCGCAGUCAAG | -0.024
GGUCACGUCUCAAUCAACUCAAUCUCCAGGGAAAUCCCUGGCUUUUUCAACAGCUCGCAGUCAAG | 0.0877
